Results published in US8889672B2, “Compounds, formulations, and methods of protein kinase C inhibition” (The Regents of The University of Michigan, priority 2011, dated 2014).

System: retinal vascular permeability
Experiment: In vivo permeability assay (retinal Evan's blue accumulation after intra-vitreal VEGF)
Conditions: estimated vitreous concentration 25 μM, with 50 ng VEGF

`CC(C)OC(=O)c1c(-c2ccc(Cl)c(Cl)c2)csc1N` [PKCζl-diCl, isopropyl 2-amino-4-(3,4-dichlorophenyl)thiophene-3-carboxylate] was tested, and the “VEGF-induced accumulation of Evan's blue in the retina” value was “prevented this effect”.
